In general, Kd refers to the concentration at which binding is half-saturated. One may read the IC50 as the concentration that gives 50% inhibition. The low end stands for greater potency in that assay, the high end for weaker potency in that assay.

Results on one molecule are retold here after patent US20230059836A1.

Assay [1] addresses Antigen CTLA-4 (SPR analyte) (UniProt P16410). Put plainly: SPR (Biacore T200), binder captured via Fc, CTLA-4 as analyte. In general terms: In SPR one partner is held on a chip, and binding of the other changes the refractive index at the surface.
Assay [2] has as its target hCTLA-4-Fc fusion protein having a biotin-label (human) (UniProt P16410). Put plainly: FACS competition: 0.5 uM biotin hCTLA-4-Fc binding to CHO-human B7-1 cells.

B1: BCP-34 (bispecific antibody, from a related filing, not shown: a dimerising Fc or GST)
chain: EIVLTQSPATLSLSPGERATLSCRASKGVSTSGYSYLHWYQQKPGQAPRLLIYLASYLESGVPARFSGSGSGTDFTLTISSLEPEDFAVYYCQHSRDLPLTFGGGTKVEIKGGGGSGGGGSGGGGSQVQLVQSGVEVKKPGASVKVSCKASGYTFTNYYMYWVRQAPGQGLEWMGGINPSNGGTNFNEKFKNRVTLTTDSSTTTAYMELKSLQFDDTAVYYCARRDYRFDMGFDYWGQGTTVTVSSEPKSCDKTHTCPPCPQVKLEESGGGLVLPGESLRLSCEASGRTITTITMGWFRQAPGKERQFVASHSWTDNNPYYADSVKGRFIISRDNAGNRVYLQMHSLEPEDTAVYYCAATARRSFVGRQWYTEARQYDYWGQGTQVTVSS[sequence of human IgG1 Fc not given]
B1 came in with a Kd in assay [1] of 6.3 nM. The IC50 in assay [2] was 18.6 nM.
